Measurements reported in PubChem BioAssay (NCATS).
The inconclusive results got no clear call from the source; some entries with a clear call stand among them for comparison. A potency beside an inconclusive call is a rough fit, not a confirmed value. Active and inactive are the calls of the source. Calls follow the shape of the dose curve; as a rule, active = well fitted cell-killing curve with a large enough effect; inconclusive = small, poorly fitted or top-dose-only effect, or effect the other way; inactive = flat fitted curve, though single readings scatter.

The compounds below were run on HeLa (assay: Primary qHTS to identify gynecologic anti-cancer compounds using libraries of approved drugs and bioactive compounds (AID 1345084; also: nearly all actives have a fitted effect of over 55% in size)). Conditions: Gynecologic cancer cell panel viability, ATPlite luminescence, 48 h; series mostly up to 57.5 µM; activity change, negative = cytotoxicity: at the top concentration.
Outline: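 Luminescence from the ATPlite ATP-monitoring reagent indicates viable cell number; lower signal means cytotoxicity. Cells received compound 16 h after seeding and were exposed for 48 h across five concentrations.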
% is scaled to controls: 0 for no effect and ±100 for the full control effect; potency is read from the fitted curve at half-maximal effect; tags tell the direction and shape of the fitted curve.

Compound	Potency	activity change, negative = cytotoxicity
CC(C)=CCC[C@@](C)(O)[C@H]1CC=C(C)CC1	inconclusive: 25.1 µM	–
NC(=O)n1c(O)c(C(=O)c2cccs2)c2cc(Cl)ccc21	inconclusive: 17.8 µM [cytotoxic, partial curve]	–
CC1(C)O[C@@H]2C[C@H]3[C@@H]4CCC5=CC(=O)CC[C@]5(C)[C@@]4(F)[C@@H](O)C[C@]3(C)[C@]2(C(=O)CCl)O1	–	inactive: -1.59%
CNCCC(Oc1ccccc1OC)c1ccccc1 (configuration not stated)	–	inactive: 5.35%
CN(C)c1ccc(C(=C2C=CC(=[N+](C)C)C=C2)c2ccc(N(C)C)cc2)cc1	active: 2 µM	–
O=C(Nc1ccc(Cl)cc1)Nc1ccc(Cl)c(Cl)c1	inconclusive: 22.4 µM [cytotoxic, single point]	–
O[C@@H](c1cc(C(F)(F)F)nc2c(C(F)(F)F)cccc12)[C@H]1CCCCN1	inconclusive: 28.2 µM [cytotoxic, single point]	–
CCCCCN=C(N)N/N=C/c1c[nH]c2ccc(OC)cc12	inconclusive: 31.6 µM [cytotoxic, single point]	–
O=[N+]([O-])c1ccc(O)c2ncccc12	–	inactive: -4.16%
CC(=O)Oc1ccc(C(c2ccc(OC(C)=O)cc2)c2ccccn2)cc1	inconclusive: 15.8 µM [rising, partial curve, poor fit]	–
CC(=O)[C@H]1CC[C@H]2[C@@H]3C[C@H](C)C4=CC(=O)CC[C@]4(C)[C@H]3[C@@H](O)C[C@]12C	active: 15.8 µM	–
CCOC(=O)C1=C(C)NC2=C(C(=O)CC(C)(C)C2)C1c1ccc(-c2ccccc2)cc1 (configuration not stated)	inconclusive: 35.5 µM [cytotoxic, single point]	–
